Measurements: the supplement of paper PMC8728848
The list shows a part of the results.

How the values were obtained:
Assay in all cases: glycan array binding signal (z-score within array); higher = stronger binding
Conditions in all cases: glycan notation: IUPAC condensed, linker removed
Neu5Ac(a2-3)Gal = molecular target: Neu5Ac(a2-3)Gal
Procedure, shortened: (§1)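 Glycan array data were curated from 3228 arrays in the Consortium for Functional Glycomics database and kept only where the protein sequence was available. Glycan names were converted to IUPAC-condensed notation, and columns mapping to the same glycan were averaged. The binding signal is a within-array Z-score, averaged across arrays of the same protein sequence at different concentrations or buffers and across linkers. Negative Z-scores can be read as non-binding.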

[1] = molecular target: Neu5Ac(a2-3)Gal(b1-3)GalNAc
Procedure, shortened: as §1

[2] = molecular target: Neu5Ac(a2-3)Gal(b1-3)GalNAc(b1-3)Gal(a1-4)Gal(b1-4)Glc
Procedure, shortened: as §1

[3] = molecular target: Neu5Ac(a2-3)Gal(b1-3)GalNAc(b1-4)Gal(b1-4)Glc
Procedure, shortened: as §1

[4] = molecular target: Neu5Ac(a2-3)Gal(b1-3)GalNAc(b1-4)[Neu5Ac(a2-3)]Gal(b1-4)Glc
Procedure, shortened: as §1

[5] = molecular target: Neu5Ac(a2-3)Gal(b1-3)GalNAc(b1-4)[Neu5Ac(a2-8)Neu5Ac(a2-3)]Gal(b1-4)Glc
Procedure, shortened: as §1

[6] = molecular target: Neu5Ac(a2-3)Gal(b1-3)GalNAc6S
Procedure, shortened: as §1

[7] = molecular target: Neu5Ac(a2-3)Gal(b1-3)GlcNAc
Procedure, shortened: as §1

[8] = molecular target: Neu5Ac(a2-3)Gal(b1-3)GlcNAc(b1-2)Man
Procedure, shortened: as §1

[9] = molecular target: Neu5Ac(a2-3)Gal(b1-3)GlcNAc(b1-2)Man(a1-3)[GlcNAc(b1-4)][Neu5Ac(a2-3)Gal(b1-3)GlcNAc(b1-2)Man(a1-6)]Man(b1-4)GlcNAc(b1-4)GlcNAc
Procedure, shortened: as §1

[10] = molecular target: Neu5Ac(a2-3)Gal(b1-3)GlcNAc(b1-2)Man(a1-3)[Neu5Ac(a2-3)Gal(b1-3)GlcNAc(b1-2)Man(a1-6)]Man(b1-4)GlcNAc(b1-4)GlcNAc
Procedure, shortened: as §1

[11] = molecular target: Neu5Ac(a2-3)Gal(b1-3)GlcNAc(b1-2)[Neu5Ac(a2-3)Gal(b1-3)GlcNAc(b1-4)]Man(a1-6)[Neu5Ac(a2-3)Gal(b1-3)GlcNAc(b1-2)Man(a1-3)]Man(b1-4)GlcNAc(b1-4)GlcNAc
Procedure, shortened: as §1

[12] = molecular target: Neu5Ac(a2-3)Gal(b1-3)GlcNAc(b1-3)Gal(b1-3)GlcNAc
Procedure, shortened: as §1

[13] = molecular target: Neu5Ac(a2-3)Gal(b1-3)GlcNAc(b1-3)Gal(b1-4)GlcNAc
Procedure, shortened: as §1

[14] = molecular target: Neu5Ac(a2-3)Gal(b1-3)GlcNAc(b1-3)GalNAc
Procedure, shortened: as §1

[15] = molecular target: Neu5Ac(a2-3)Gal(b1-3)GlcNAc(b1-6)GalNAc
Procedure, shortened: as §1

[16] = molecular target: Neu5Ac(a2-3)Gal(b1-3)GlcNAc6S
Procedure, shortened: as §1

[17] = molecular target: Neu5Ac(a2-3)Gal(b1-3)[Fuc(a1-4)]GlcNAc
Procedure, shortened: as §1

[18] = molecular target: Neu5Ac(a2-3)Gal(b1-3)[Fuc(a1-4)]GlcNAc(b1-3)Gal(b1-3)[Fuc(a1-4)]GlcNAc
Procedure, shortened: as §1

[19] = molecular target: Neu5Ac(a2-3)Gal(b1-3)[Fuc(a1-4)]GlcNAc(b1-3)Gal(b1-4)[Fuc(a1-3)]GlcNAc
Procedure, shortened: as §1

[20] = molecular target: Neu5Ac(a2-3)Gal(b1-3)[GlcNAc(b1-6)]GalNAc
Procedure, shortened: as §1

[21] = molecular target: Neu5Ac(a2-3)Gal(b1-3)[Neu5Ac(a2-6)]GalNAc
Procedure, shortened: as §1

[22] = molecular target: Neu5Ac(a2-3)Gal(b1-3)[Neu5Ac(a2-6)]GlcNAc(b1-3)[Fuc(a1-3)[Gal(b1-4)]GlcNAc(b1-6)]Gal(b1-4)Glc
Procedure, shortened: as §1

[23] = molecular target: Neu5Ac(a2-3)Gal(b1-3)]Neu5Ac(a2-3)Gal(b1-4)]GlcNAc
Procedure, shortened: as §1

Neu5Ac(a2-3)Gal(b1-4)Glc = molecular target: Neu5Ac(a2-3)Gal(b1-4)Glc
Procedure, shortened: as §1

[24] = molecular target: Neu5Ac(a2-3)Gal(b1-4)GlcNAc
Procedure, shortened: as §1

[25] = molecular target: Neu5Ac(a2-3)Gal(b1-4)GlcNAc(b1-2)Man
Procedure, shortened: as §1

[26] = molecular target: Neu5Ac(a2-3)Gal(b1-4)GlcNAc(b1-2)Man(a1-3)[GlcNAc(b1-4)][Neu5Ac(a2-3)Gal(b1-4)GlcNAc(b1-2)Man(a1-6)]Man(b1-4)GlcNAc(b1-4)GlcNAc
Procedure, shortened: as §1

[27] = molecular target: Neu5Ac(a2-3)Gal(b1-4)GlcNAc(b1-2)Man(a1-3)[Neu5Ac(a2-3)Gal(b1-4)GlcNAc(b1-2)Man(a1-6)]Man(b1-4)GlcNAc(b1-4)GlcNAc
Procedure, shortened: as §1

[28] = molecular target: Neu5Ac(a2-3)Gal(b1-4)GlcNAc(b1-2)Man(a1-3)[Neu5Ac(a2-3)Gal(b1-4)GlcNAc(b1-2)Man(a1-6)]Man(b1-4)GlcNAc(b1-4)[Fuc(a1-6)]GlcNAc
Procedure, shortened: as §1

[29] = molecular target: Neu5Ac(a2-3)Gal(b1-4)GlcNAc(b1-2)Man(a1-3)[Neu5Ac(a2-6)Gal(b1-4)GlcNAc(b1-2)Man(a1-6)]Man(b1-4)GlcNAc(b1-4)GlcNAc
Procedure, shortened: as §1

[30] = molecular target: Neu5Ac(a2-3)Gal(b1-4)GlcNAc(b1-2)[Neu5Ac(a2-3)Gal(b1-4)GlcNAc(b1-4)]Man(a1-3)[GlcNAc(b1-4)][Neu5Ac(a2-3)Gal(b1-4)GlcNAc(b1-2)[Neu5Ac(a2-3)Gal(b1-4)GlcNAc(b1-6)]Man(a1-6)]Man(b1-4)GlcNAc(b1-4)GlcNAc
Procedure, shortened: as §1

[31] = molecular target: Neu5Ac(a2-3)Gal(b1-4)GlcNAc(b1-2)[Neu5Ac(a2-3)Gal(b1-4)GlcNAc(b1-4)]Man(a1-3)[GlcNAc(b1-4)][Neu5Ac(a2-3)Gal(b1-4)GlcNAc(b1-4)Man(a1-6)]Man(b1-4)GlcNAc(b1-4)GlcNAc
Procedure, shortened: as §1

[32] = molecular target: Neu5Ac(a2-3)Gal(b1-4)GlcNAc(b1-2)[Neu5Ac(a2-3)Gal(b1-4)GlcNAc(b1-6)]Man(a1-6)[Neu5Ac(a2-3)Gal(b1-4)GlcNAc(b1-2)Man(a1-3)][GlcNAc(b1-4)]Man(b1-4)GlcNAc(b1-4)GlcNAc
Procedure, shortened: as §1

[33] = molecular target: Neu5Ac(a2-3)Gal(b1-4)GlcNAc(b1-3)Gal
Procedure, shortened: as §1

[34] = molecular target: Neu5Ac(a2-3)Gal(b1-4)GlcNAc(b1-3)Gal(b1-3)GlcNAc
Procedure, shortened: as §1

[35] = molecular target: Neu5Ac(a2-3)Gal(b1-4)GlcNAc(b1-3)Gal(b1-4)GlcNAc
Procedure, shortened: as §1

B1: DC-ASGPR Long (Homo sapiens) (protein)
chain: MTRTYENFQYLENKVKVQGFKNGPLPLQSLLQRLRSGPCHLLLSLGLGLLLLVIICVVGFQNSKFQRDLVTLRTDFSNFTSNTVAEIQALTSQGSSLEETIASLKAEVEGFKQERQAGVSELQEHTTQKAHLGHCPHCPSVCVPVHSEMLLRVQQLVQDLKKLTCQVATLNNNASTEGTCCPVNWVEHQDSCYWFSHSGMSWAEAEKYCQLKNAHLVVINSREEQNFVQKYLGSAYTWMGLSDPEGAWKWVDGTDYATGFQNWKPGQPDDWQGHGLGGGEDCAHFHPDGGWNDDVCQRPYHWVCEAGLGQTSQESH
glycan array binding signal (z-score) (Neu5Ac(a2-3)Gal): -0.419 | glycan array binding signal (z-score) [1]: -0.272 | glycan array binding signal (z-score) [2]: -0.363 | glycan array binding signal (z-score) [3]: -0.405 | glycan array binding signal (z-score) [4]: -0.274 | glycan array binding signal (z-score) [5]: -0.225 | glycan array binding signal (z-score) [6]: -0.137 | glycan array binding signal (z-score) [7]: -0.361 | glycan array binding signal (z-score) [8]: -0.505 | glycan array binding signal (z-score) [9]: 0.1 | glycan array binding signal (z-score) [10]: 0.516 | glycan array binding signal (z-score) [11]: 0.483 | glycan array binding signal (z-score) [12]: -0.601 | glycan array binding signal (z-score) [13]: -0.511 | glycan array binding signal (z-score) [14]: 0.133 | glycan array binding signal (z-score) [15]: 4.59 | glycan array binding signal (z-score) [16]: -0.256 | glycan array binding signal (z-score) [17]: 0.116 | glycan array binding signal (z-score) [18]: -0.273 | glycan array binding signal (z-score) [19]: -0.162 | glycan array binding signal (z-score) [20]: -0.325 | glycan array binding signal (z-score) [21]: 0.59 | glycan array binding signal (z-score) [22]: -0.251 | glycan array binding signal (z-score) [23]: -0.176 | glycan array binding signal (z-score) (Neu5Ac(a2-3)Gal(b1-4)Glc): -0.302 | glycan array binding signal (z-score) [24]: -0.21 | glycan array binding signal (z-score) [25]: -0.097 | glycan array binding signal (z-score) [26]: -0.066 | glycan array binding signal (z-score) [27]: -0.251 | glycan array binding signal (z-score) [28]: -0.062 | glycan array binding signal (z-score) [29]: -0.355 | glycan array binding signal (z-score) [30]: -0.053 | glycan array binding signal (z-score) [31]: -0.084 | glycan array binding signal (z-score) [32]: -0.537 | glycan array binding signal (z-score) [33]: -0.443 | glycan array binding signal (z-score) [34]: -0.025 | glycan array binding signal (z-score) [35]: -0.227
